Measured values reported in the supplement of paper PMC11417369.
± gives the standard deviation of the averaged measurements. Some of the results follow.

Each sequence was assayed on PfAP2-G AP2 domain (GST-tagged) (assay: gcPBM binding intensity (ln(normalized median fluorescence intensity)); higher = stronger DNA binding).
Outline: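 Probes on an Agilent 4 × 180k array were primer-extended, double-stranded and 36 bp long, taken from intergenic genomic regions, with negative controls added. GST-tagged P. falciparum DNA-binding domains from E. coli, about 25 μg on average, were applied to the array for 1 h in 1× PBS containing 1% milk, 0.2 mg/ml BSA, 0.5% salmon testes DNA and 0.03% Triton X-100. Binding intensity, obtained after Alexa488 anti-GST antibody detection and a 488 nm scan, is the highest Masliner-normalised natural-log median intensity across replicate spots of either probe orientation.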

| Sequence | gcPBM binding intensity (ln) |
| --- | --- |
| ATACATACATATGTATGTACGTATGTATGTATGTAT [XGTACX_site3853] | 11.4 ± 0.98 |
| ACATATAAGATATATACACACATATAAATACATTAA [CACACA_site7763] | 9.785 ± 0.035 |
| AAAAAAAAAAACTACACACATACAAATATTTATATA [CACACA_site2574] | 9.755 ± 0.064 |
| CATAATATATATTGAGCATGCTACTATTGTTAGAAA [TGCATGCA_site740] | 9.895 ± 0.064 |
| AAGATATGAGGGAATACACACATATATATATATATA [CACACA_site1581] | 10.1 ± 0.48 |
| AAAATGAAGAAGTGCACACATATATATATTTATATA [CACACA_site507] | 10.4 ± 0.23 |
| TTTTTCTTTTTTTTTTCCTTTATCACATAAGAAAAA [CACACA_negctrl_site192] | 10.1 ± 0.35 |
| CTTTTTTTTTAAAAATGTACACATTTTTGAAAATAC [XGTACX_site3127] | 11.4 ± 0.84 |
| AAGAAAATAAATAATACACACAAGGATTTGTAAATA [CACACA_site690] | 9.8 ± 0.28 |
| AAAAAAAAAATTAAAAGTACAGAAAATAAATAAATA [XGTACX_site7470] | 11.4 ± 0.82 |
| ATATGTTTGATTTTTTTTTTTTTTTTTTTTATGTGT [CACACA_negctrl_site1001] | 9.62 ± 0.11 |
| TTAATACACCATAAAAGTACATAATATGATATTTAA [XGTACX_site8561] | 11.3 ± 0.91 |
| CTTAATATGAATAAAACACACATATATAATTTGTAA [CACACA_site5120] | 9.715 ± 0.035 |
| AAAAGAATTAAAAAATGTACATATAATATATATATA [XGTACX_site6721] | 11.1 ± 0.68 |
| TTTTTTTTTTTTTTTACACACATTTGAATAACTTTA [CACACA_site6810] | 9.75 ± 0.34 |
| AAGAATTTAGAAGGCATGCACTTAAACATGCATATA | 9.84 ± 0.099 |
| TATAAATATACACCCACACACATATATAAATAAATA [CACACA_site7717] | 10.2 ± 0.16 |
| AAAAAAGAAGACATCTAAGTAATAGTAACAATGTAT [CACACA_negctrl_site1660] | 9.78 ± 0.28 |
| GACATATTATTCATGTGTACATATTATATGTATATA [XGTACX_site3442] | 11.3 ± 0.73 |
| GTAATGAACAAACACAAAAAAAAAAAAAAAATAATA [TGCATGCA_negctrl_site344] | 9.75 ± 0.31 |
| AATTGAGTATCGTGAGTGCAAAACGTGGTTCAAAGA | 10.5 ± 0.29 |
| TAAAATAAAATAAAATGTACTTTCCTTTTGATAATA [XGTACX_site6288] | 10.8 ± 0.64 |

| Sequence | gcPBM binding intensity (ln) |
| --- | --- |
| CATATAATAAATAATACACACATATTGTAAATATAT [CACACA_site5734] | 9.955 ± 0.035 |
| ATATATTTTAGGAGAGTGCATTTAATATTATTTAAT [GTGCAC_site9444] | 9.95 ± 0.13 |
| TTATATATTTATAATCGTACAATAATTAACGTAAAA [XGTACX_site3206] | 11.1 ± 0.57 |
| TTTTCCCTTACAGAAAAAAAAAAATTCCTAACCCCG [CACACA_negctrl_site650] | 10.4 ± 0.52 |
| TTTTTATTTTTTGAAACACACACAAAAAAAATGATA [CACACA_site8564] | 10.3 ± 0.36 |
| TAAGGATATATATATTCACACACACCGGGAAATATA [CACACA_site8020] | 9.995 ± 0.021 |
| AAACAAATATATATATGTACTTATAAAAAAAAAAAT [XGTACX_site2211] | 11.3 ± 0.77 |
| AAGGATCACGCACAAACACACATATTTATATTTATA [CACACA_site6405] | 10.1 ± 0.23 |
| CTTTATTTTTTATACACACACAATATGTATATATAT [CACACA_site3550] | 10.22 ± 0.099 |
| CATTTTTTGCTTTCAACACACATACAATATATATAA [CACACA_site6127] | 10.2 ± 0.22 |
| TATGAAATATTTATACACAGAACTTCATAATTTTCA [TGCATGCA_negctrl_site509] | 9.8 ± 0.12 |
| TATATATGGAAAAGAGTCAAAAAGAAAAAAGAAAAA [CACACA_negctrl_site1374] | 10.2 ± 0.3 |
| ATATATTTAAAATTGACACACATTTAATGACATTTT [CACACA_site3112] | 10 |
| TTTTTGTATTCTTCTTCTTCCAGACTACATTATGTC [XGTACX_negctrl_site235] | 9.915 ± 0.092 |
| AATTAAACTTTGTTTTTGTTTTTTTTTTTTATATTT [CACACA_negctrl_site1316] | 9.49 ± 0.057 |
| ATATATATAAATATATGTACATAAATATATTTGTAA [XGTACX_site6715] | 11.2 ± 0.76 |
| AAATAAAAATTAAAAAAATAGAAACGAATTGAATGC [TGCATGCA_negctrl_site365] | 9.87 ± 0.099 |
| CGCGTATAACGAAATTGTACAAAAAAAATTAAACAT [XGTACX_site6813] | 11 ± 0.5 |
| TCTTTAACAAGTTAAACACACATACCTATATACATA [CACACA_site7237] | 9.86 ± 0.085 |
| TGGTGATATACGAAATGTACGCAAATCACAAAATAA [XGTACX_site8836] | 11.5 ± 0.98 |
| ATATATATATATAAAGGTACACATTTATTAAATATA [XGTACX_site7102] | 11.3 ± 0.97 |
| AATTTTGAGATGTGGTGTACACAAAATTAGTTAGAC [XGTACX_site7033] | 11.7 ± 0.98 |

| Sequence | gcPBM binding intensity (ln) |
| --- | --- |
| TCAACGATCACTCGGTGTACTATAAATGAGAGAATT [XGTACX_site1820] | 11.3 ± 0.95 |
| ATTAAATTAAAATAATGTACTTAATACTTTTGCTTA [XGTACX_site8404] | 11.1 ± 0.69 |
| AACAATTTTTAAAGGTGTACAATATGTATATAAGAA [XGTACX_site254] | 11.6 ± 0.93 |
| AACAAATTAATTCTAGTGCAGGACGTATTTGTGTAC [GTGCAC_site9907] | 11.1 ± 0.51 |
| AAAAAAAAAAAAAAATGTACATATATAATATTTATA [XGTACX_site5117] | 11.1 ± 0.71 |
| TACAAAATGTTATATCAATATAGATAAAAAAATGAA [XGTACX_negctrl_site285] | 9.65 ± 0.23 |
| TAATATATATAACATATACACACGTTCATATATATA [CACACA_site462] | 9.82 ± 0.042 |
| TATTTGCAATATTATACACACATTAGATATTGCAAA [CACACA_site7565] | 9.95 ± 0.11 |
| ATAAAAATATATGAAACACACAGTTTCTATAAGAAA [CACACA_site4156] | 9.76 |
| ATATGTATATAATAAGAACACACATATATTTAATTT [CACACA_site8961] | 10.2 ± 0.16 |
| GTTATTAAATAATTCACACACATATATAAATAAATA [CACACA_site7129] | 9.85 ± 0.057 |
| TTGTGCTAAACAAAAAAAAATATATATAAAAAAATA [XGTACX_negctrl_site388] | 9.88 ± 0.33 |
| TACAATATAATTTAATGTACATGTGAATATATATAT [XGTACX_site4675] | 11.2 ± 0.71 |
| TAATATACTATAAATACACACAAGTGTACATACTTC [CACACA_site983] | 11.3 ± 0.87 |
| TTAAAAAGAGGTGACACACACATATAAATCTAAATC [CACACA_site3738] | 10.08 ± 0.057 |
| TATTAAAAGGTGAGTACACACATATCTGAGTATATA [CACACA_site5192] | 11.5 ± 0.91 |
| CTTCATAAAAATTGCACACATATAATAATGTACATA [CACACA_site2212] | 11.2 ± 0.64 |
| AAAAAAAATACATACACACACACACGCACATATATA [CACACA_site7645] | 10.3 ± 0.18 |
| ATTTTTTTATAATCAACCCATTTCCTACATTTTTAT [CACACA_negctrl_site1237] | 10.045 ± 0.007 |
| CATCCACATAGATGTACACACATATATATATATATA [CACACA_site5616] | 11.4 ± 0.75 |
| ATATGTATATTTTTGATGTGCTTTTATTTGGTTATT [CACACA_negctrl_site626] | 10.01 ± 0.035 |
| AATAAATATAAATAAATAAATATATATATATATTTG [CACACA_negctrl_site1486] | 9.305 ± 0.035 |

| Sequence | gcPBM binding intensity (ln) |
| --- | --- |
| ATATCTCAACATATCACACATATATATATATAATAT [CACACA_site5018] | 9.98 ± 0.13 |
| GTATATATGTTTTATACACACATTAAAGGAAATATA [CACACA_site984] | 10.3 ± 0.28 |
| CACAAACAGACAAACACACACACACGGACATACATA [CACACA_site6350] | 11 ± 0.48 |
| TATAATATATAAAAATGTACACATAAATATAAGTAG [XGTACX_site665] | 11.5 ± 0.8 |
| ACATGCAAGAAGAAATGTACTTAACATCTATATAGA [XGTACX_site7338] | 10.9 ± 0.64 |
| ACTAAATAAATAAATATAATATATAAATATGTATGT [TGCATGCA_negctrl_site583] | 9.73 ± 0.13 |
| AAAATTAATTTATTTACACACAATATTAAAATATTT [CACACA_site7512] | 9.88 ± 0.071 |
| TTTTATACATATTTTACACACTAAAATATACAGATA [CACACA_site4333] | 10.1 ± 0.099 |
| TTACATATTCATAAAAGTACATAATTATAAAAGGTA [XGTACX_site906] | 11.2 ± 0.76 |
| AATCAAAAAGGAACCATAATATTACAACTATATATA [CACACA_negctrl_site381] | 10.1 ± 0.11 |
| TAAAACTTAATGTTTTGTACATATTCTTCTTTATTT [XGTACX_site4271] | 10.7 ± 0.34 |
| AAACAATTATTATATTGTACATATATTACATTATTA [XGTACX_site1089] | 10.9 ± 0.76 |
| TTATATTTTATTATGTGTACGTATATAATATAATAT [XGTACX_site6230] | 11.6 ± 0.97 |
| GCCATAAAGATATATACACACATAAAAAAAAGTTAT [CACACA_site6674] | 10.1 ± 0.16 |
| AAAAAAAAAATTAAATGTACATATATAATATATATA [XGTACX_site7245] | 10.9 ± 0.63 |
| ATTATTATAGATAAAACACACAATTTTGTTTTCACA [CACACA_site7792] | 9.82 ± 0.057 |
| TTAACAAAGAAACACACACACACACCCAAAAAAAAA [CACACA_site516] | 10.4 ± 0.33 |
| TTTTTATTCGTTAAATGTACAAAAAAAATGTTATAT [XGTACX_site2804] | 10.8 ± 0.48 |
| ATACACTAGAAAATTTTATAGTATTATTAATGTTAA [GTGCAC_negctrl_site101] | 9.89 ± 0.057 |
| ATAAAGTAAGAAGAAATAATGATTTTCATGGAAAAC [XGTACX_negctrl_site322] | 9.76 ± 0.17 |
| AATAAGATAAGGAAAAGTACTTATAATTAAACTAAT [XGTACX_site1850] | 11.1 ± 0.57 |
| CTCATAGTTGGGTGCACACAAAAAATTAAAAAAATA [CACACA_site3032] | 10.8 ± 0.8 |
